Hit rate of the full screen: of about 310,000 compounds, about 14,000 (4.5%) showed an effect of 50% or more. Effects have a minus sign here. The list shows a part of the results.
target: human ether-à-go-go-related gene (hERG) potassium channel (human, UniProt Q12809); assay: primary screen, population patch clamp on CHO cells stably expressing hERG
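Note: peak tail current of the secondary pulse compared with the same well before compound.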

Sequence of human ether-à-go-go-related gene (hERG) potassium channel (Q12809 whole entry, looked up): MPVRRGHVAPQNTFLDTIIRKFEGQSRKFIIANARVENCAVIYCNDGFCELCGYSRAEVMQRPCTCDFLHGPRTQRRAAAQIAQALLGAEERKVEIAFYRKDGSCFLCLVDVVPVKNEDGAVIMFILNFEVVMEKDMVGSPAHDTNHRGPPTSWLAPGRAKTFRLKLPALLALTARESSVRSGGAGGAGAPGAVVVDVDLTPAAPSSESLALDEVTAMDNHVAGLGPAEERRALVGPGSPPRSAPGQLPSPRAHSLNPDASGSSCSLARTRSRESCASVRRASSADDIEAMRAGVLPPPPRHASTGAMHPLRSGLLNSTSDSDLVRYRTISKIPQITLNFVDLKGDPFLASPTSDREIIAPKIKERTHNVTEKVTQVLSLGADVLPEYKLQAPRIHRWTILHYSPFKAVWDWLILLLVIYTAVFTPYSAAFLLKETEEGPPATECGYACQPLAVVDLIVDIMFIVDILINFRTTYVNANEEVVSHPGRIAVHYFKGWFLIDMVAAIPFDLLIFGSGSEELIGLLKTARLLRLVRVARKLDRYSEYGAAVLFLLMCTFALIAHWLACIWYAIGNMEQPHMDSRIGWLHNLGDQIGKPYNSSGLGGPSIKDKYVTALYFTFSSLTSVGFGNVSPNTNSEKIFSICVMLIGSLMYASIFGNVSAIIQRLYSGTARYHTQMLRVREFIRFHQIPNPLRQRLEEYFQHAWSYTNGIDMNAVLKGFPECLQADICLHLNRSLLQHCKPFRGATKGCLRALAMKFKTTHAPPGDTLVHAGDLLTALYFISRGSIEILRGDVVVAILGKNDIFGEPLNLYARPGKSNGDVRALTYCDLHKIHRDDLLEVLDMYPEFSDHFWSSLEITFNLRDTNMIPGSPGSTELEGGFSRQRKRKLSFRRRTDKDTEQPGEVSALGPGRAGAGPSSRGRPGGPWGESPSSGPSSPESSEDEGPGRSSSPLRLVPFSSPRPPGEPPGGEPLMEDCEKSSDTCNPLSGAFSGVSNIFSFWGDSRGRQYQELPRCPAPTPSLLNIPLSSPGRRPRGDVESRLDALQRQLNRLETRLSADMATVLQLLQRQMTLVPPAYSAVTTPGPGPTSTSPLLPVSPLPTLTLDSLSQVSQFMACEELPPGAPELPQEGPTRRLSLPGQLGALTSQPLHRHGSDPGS

SMILES	hERG current change (%, negative = inhibition) at 10uM [%]
Cc1ccc(C(=O)N/C(=C\c2cn(S(=O)(=O)N(C)C)c3ccccc23)C(=O)NCCCn2ccnc2)cc1	-28.6
CCOC(=O)/C(C#N)=C/Nc1cc(F)ccc1C	20.9
N#Cc1nc(-c2ccc(OCc3ccccc3Cl)cc2)oc1NCCCn1ccnc1	-13
COc1ccc(OC)c(NC(=S)NCCCN2CCOCC2)c1	-3.09
O=C(CSc1ncn(-c2ccccc2)n1)Nc1ccc2c(c1)OCO2	-32.5
COC(=O)C1=C(C)N(C)C(=O)NC1c1ccc([N+](=O)[O-])o1 (stereo not shown)	-5.76
O=C(Nc1ccc(N2CCOCC2)c(Cl)c1)c1cccnc1Cl	-1.86
Cc1ccn2c(c1)nc(=S)n2C(=O)c1ccccc1	-13.1
Nc1nc(SCC(=O)N2CCCC2)[nH]c(=O)c1NC(=O)c1cccs1	20.2
COc1ccccc1CCc1nnc(CCC(=O)NCC2CCCO2)o1 (stereo not shown)	11.1
COc1ccc(C)cc1S(=O)(=O)N1CCC2(CC1)OCCN2S(=O)(=O)c1cccs1	-16.5
COc1ccc(N2CCN(C(=O)Nc3ccc(S(=O)(=O)N(C)C)cc3)CC2)cc1	6.8
c1ccc(CCn2nnnc2CN2CCC(n3nnc4ccccc43)CC2)cc1	-36.4
O=C(CCC(=O)N1CCOc2ccccc21)NCCN1CCOCC1	-0.391
CC(C)Cc1nc2sc3c(c2c(=O)n1N)CC(C)(C)OC3	8.18
CCn1c(CSc2nc3ccccc3s2)nnc1SCC(=O)OC(C)(C)C	-31.9
O=C(NC1CCCCCC1)C1CCN(S(=O)(=O)c2ccc(F)cc2)CC1	0.579
NC(=O)c1ccsc1NC(=O)COC(=O)c1ccc(Cl)c(N)c1	-3.1
Cc1nc2nc(-c3ccc(Cl)cc3)[nH]n2c(=O)c1Cc1ccccc1	6.69
CCCCNC(=O)CCNS(=O)(=O)c1ccc(Br)cc1	-14.7
O=[N+]([O-])c1ccc(C[n+]2cc(-c3ccc(Cl)c(Cl)c3)n3c2CCCCC3)cc1.[Br-]	-15.7
CC(C)Sc1nc2sccc2c(=O)n1-c1ccccc1	9.33

SMILES	hERG current change (%, negative = inhibition) at 10uM [%]
CC(C)(/C=N/O)/[N+]([O-])=C/C=[N+](\[O-])C(C)(C)/C=N/O	7.54
COC1CCCN(Cc2nc(Cc3ccccc3F)no2)C1 (stereo not shown)	21.4
CCN(C(=O)COc1ncnc2scc(-c3ccc(F)cc3)c12)C1CCS(=O)(=O)C1 (stereo not shown)	-14
O=C(O)c1ccccc1NC(=S)NC(=O)c1sc2ccccc2c1Cl	22.6
C/C(CC(=O)Nc1ccc2c(c1)OCO2)=N\NC(=O)C(c1ccccc1)c1ccccc1	-7.89
O=C(NC(=S)NCc1ccc(F)cc1)c1ccccc1	-48.2
O=C(CN1CCN(c2ccc(F)cc2)CC1)Nc1ccccc1Br	12.5
Cc1ccc(S(=O)(=O)Nn2c(C)ccc2C)cc1	15.3
CCOC(=O)c1cc(CC)sc1NC(=O)Cc1ccccc1	25.9
CCOC(=O)C1CCN(C(=O)c2cc(C(C)(C)C)nn2Cc2ccccc2)CC1	-20
CN1CCN(C(=S)NC(=O)c2ccc(S(=O)(=O)N3CCOCC3)cc2)CC1	28.9
Cc1c(N/C(=N/S(=O)(=O)c2ccccc2)c2ccc(Cl)cc2)c(=O)n(-c2ccccc2)n1C	-30.7
Cc1nn(Cc2ccccc2)c(C)c1C(=O)NCc1ccccc1	6.55
CCN1CCN(C(=O)c2cn(CC)c3ccc(S(=O)(=O)N(C)C)cc3c2=O)CC1	16
CCN(CC(=O)NCc1ccc(Cl)cc1)C(=O)CSCC(=O)Nc1ccc(OC)cc1	-66.7
Cc1onc(-c2ccccc2Cl)c1C(=O)N[C@@H]1C(=O)N2[C@@H]1SC(C)(C)[C@@H]2C(=O)[O-].[Na+]	9.2
CC(Cc1ccccc1)NC(=O)c1ccc([N+](=O)[O-])cc1 (stereo not shown)	-20.9
C=CCN=C(NC#N)SCc1ccccc1Cl	0.978
CCCCc1nc2ccccc2c(N)c1CCC.O=C(O)c1cc([N+](=O)[O-])ccc1Cl	-66.4
CCCCC(=O)N(c1ccc(OC)cc1)C1C=CS(=O)(=O)C1 (stereo not shown)	7.86
CCN1C(=O)/C(=C/c2c(C)nn(C)c2C)SC1=S	-12.9

— publication PMC4336329 (PLoS ONE, 2015)
